Assay results from ChEMBL document CHEMBL4888484, “Replenishing the malaria drug discovery pipeline: Screening and hit evaluation of the MMV Hit Generation Library 1 (HGL1) against asexual blood stage Plasmodium falciparum ,using a nano luciferase reporter read-out” (2022).
In all, about 150,000 compounds went through this assay and about 540 (0.36%) showed an effect of 50% or more. Some of the results follow.

tested on: Plasmodium falciparum; assay: Primary screen in NF54 nanoGlo assay, in single point, at 2uM, 72h; a lower Z score goes with more inhibition; format: functional, Erythrocyte; conditions: timepoint 72 hour

Structure (SMILES) | % Inhibition [%] | Z score
COc1cccc(C[C@@H]2CC[C@H](CN3CCC(C(=O)O)CC3)O2)n1 | -3 | 0.24
Cc1ccc2[nH]c(CN[C@H]3CC[C@@H](O)C3)cc2c1C | 5 | -0.52
CN(CC1CCCN(C(=O)C(Cc2ccccc2)NC(=O)c2ccccc2)C1)C(=O)OC(C)(C)C (stereo unspecified) | -13 | 2.65
CCOc1cccc(-c2ccc3nc(-c4ccc(F)cc4)c(CN4CCN(C(=O)c5ccccc5)CC4)n3c2)c1 | 1 | -0.12
CC1CN(C(=O)Nc2nc3ccccc3s2)CC(C)O1 (stereo unspecified) | -2 | 0.23
Cc1noc(CN(C)C2CCN(Cc3ccco3)CC2)n1 | -7 | 1.55
O=C(NC[C@H]1CCCO1)c1nc2n(c1Br)CCC2 | -16 | 1.61
Cc1cnccc1N1CCC(C(=O)N2CCOC[C@@H]2C)CC1 | -6 | 0.78
CC1(C)CC(NC(=O)CCC2CCCCC2)CC(C)(C)N1 | -12 | 1.63
Cc1ncsc1CCOC(=O)[C@@H]1CCCN1C(=O)CC(C)(C)C | -9 | 1.47
CC(C)CN1CC(=O)C(c2nc3ccccc3[nH]2)=C1N | 8 | -0.95
Cc1ccc(-c2nnc(N3CCC4(CCOC4)C3)n2CC2CCCO2)s1 (stereo unspecified) | -3 | 0.32
CC(=O)N(Cc1ccccc1C)c1nc2ccccc2n(CC(=O)Nc2ccc(F)cc2)c1=O | -2 | 0.27
O=C(c1ccc[nH]1)N1CCC(Oc2cccc(C(F)(F)F)c2)CC1 | 13 | -1.85
CC(C)(C)[C@H](NCC(=O)NC(=O)NCC(F)(F)F)c1cccs1 | -38 | 4.49
CC(C)C(=O)Nc1nc(-c2ccc(S(=O)(=O)N3CCOCC3)cc2)cs1 | -10 | 1.41
CC1CN(CC2CN(C)CCO2)CCN1C(=O)Nc1ccccc1 (stereo unspecified) | -8 | 1.51
O=C(NS(=O)(=O)Oc1ccccc1F)OC[C@@H]1CCCN2CCCCC12 (stereo partly specified) | -6 | 0.83
CCc1cc(-c2cccc(C(=O)N3C[C@@H]4[C@@H](CN(C)C)[C@@H]4C3)c2)nc(C)n1 | 0 | 0
O=c1[nH]c2cccc(N3CCN(Cc4ncccc4Cl)CC3)c2[nH]1 | -4 | 0.59
O=C1[C@@H](Nc2ccn(CC(F)(F)F)n2)CCN1c1ccccc1 | -2 | 0.3
Nc1ccccc1NS(=O)(=O)C(F)(F)F | 1 | -0.12
CCCCS(=O)(=O)Oc1ccc2c(c1)ncn2C | -11 | 2.08
Cc1nnc(CN2CCC[C@H](c3cc(O)ncn3)C2)s1 | 4 | -0.81
CCC(C)NC(=O)c1coc(CN(Cc2ccccc2OC)C(C)C(C)C)n1 (stereo unspecified) | 6 | -1.08
Cc1ccccc1C(=O)N(Cc1cccc(F)c1)c1ccc(CC(=O)NCc2ccc(F)cc2)cc1 | -1 | 0.16
Cc1cccc(S(=O)(=O)N2C[C@@H](F)C[C@H]2C(=O)N2CCc3ccccc3C2)c1 | 3 | -0.3

Structure (SMILES) | % Inhibition [%] | Z score
CCn1nc(C)cc1C(=O)N1C(C)COC(c2ccccc2)C1C (stereo unspecified) | 3 | -0.3
C=CCN(CC(=O)Nc1nc(-c2ccccc2)cn1-c1ccc(C)cc1)C(=O)Cc1ccccc1 | 3 | -0.33
O=C(COc1ccc(Br)cc1)N1CCN(S(=O)(=O)c2ccc3ccccc3c2)CC1 | -3 | 0.36
OCc1ccc(CNc2ccc(Cc3nnc4ccccn34)cc2)o1 | 1 | -0.08
C[C@]1(O)CCN(C(=O)CCc2ccc(-c3ccccc3)cc2)C[C@@H]1O | -13 | 1.23
CN(Cc1c[nH]cn1)[C@H]1CCc2ccccc2C1 | -15 | 1.74
Cc1ccc(CN(C(C)C)S(=O)(=O)[C@@H](C)C(F)(F)F)o1 | 9 | -0.76
CCOc1ccc(NC(=O)c2cc3nccc(-c4cnn(C)c4C)n3n2)cc1 | 4 | -0.55
N#Cc1c(N)sc2c1CCN(CC(=O)Nc1ccc3c(c1)OC1(CCCCC1)O3)C2 | -9 | 0.84
COCCn1nnnc1[C@]1(N2CCCC2)CCN(C(=O)CCC2CCCCC2)C1 | -5 | 0.63
CCCC(=O)Nc1ccc2c(c1)CN(C(=O)c1cc(C)ccc1C)[C@H](C(=O)N(C)C)C2 | -1 | 0.19
CN(C)C(=O)c1ccccc1OC(F)F | -7 | 1.02
COc1ccc2c(c1)OC(C)CN(CC(=O)NC(C)c1nc3cc(C)ccc3[nH]1)C2 (stereo unspecified) | 1 | -0.08
O=C(NC1CCCCC1CO)c1ccc2[nH]ncc2c1 (stereo unspecified) | -5 | 0.78
O=C(CC1OCCCO1)N1CCCC1CC(O)c1ccc(F)cc1 (stereo unspecified) | -10 | 1.41
CCC(CC)(C(=O)Nc1n[nH]c2c1CNCC2)c1ccccc1 | -4 | 0.85
O=C(NC[C@H]1CCCO1)c1nnc(-c2cccc(Cl)c2)o1 | -12 | 1.81
O=C(Nc1ccc(C(=O)N2CCC[C@H](c3nc4ccccc4s3)C2)cc1)c1cccs1 | -9 | 1.45
Cc1cnc(C2CCC2)n1CC1CCN(C(=O)Nc2ccccc2)CC1 | 1 | -0.19
Cn1cc(CC(=O)NCc2ccc(Cl)cc2)c2cccnc21 | -13 | 1.51
FC(F)(F)c1cc(N2CCN(CCCn3ccnc3)CC2)ccc1Cl | 0 | 0.06
CON(C)S(=O)(=O)c1cnn(C)c1 | 2 | -0.33
Cc1cc(-c2cc(S(=O)(=O)N3CCOCC3)c(C)s2)on1 | -6 | 0.57
CC(=O)N1CC(C(=O)NC(C)c2ccccc2)CCC1c1ccc(F)c(C)c1 (stereo unspecified) | -4 | 0.57
CC1(C)CC2(CC(c3ccccc3)Oc3cc(O)ccc32)NC(=O)N1 (stereo unspecified) | 3 | -0.39
COc1ccc(OC)c(NC(=O)Cn2cc(OC)c(=O)cc2CN2CCCCCC2)c1 | -8 | 1.38
